Over roughly 13,000 compounds, “IFI” has its median near 4; the highest 2% begin near 17. Some of the results follow.
assay: GSK_TCMDC: Inhibition Frequency Index (IFI). The number of non-kinase HTS assays where a compound showed > 50 % inhibition, expressed as a percentage of the number of such assays in which the compound was tested (-0 is zero); type: functional

Row | Compound | IFI [%]
1 | C=CCNC(=O)C(C)c1ccc2cc(OC)ccc2c1 (stereo not drawn) | -0
2 | CN1N=C2c3ccccc3CCC2C1c1ccc(C#N)cc1 (stereo not drawn) | 0.67
3 | c1cncc(CNc2ncc(-c3ccsc3)c(-c3nccs3)n2)c1 | 3.33
4 | CCN(CC)CCCCOc1ccc2c(c1)C(=O)c1cc(OCCCCN(CC)CC)ccc1-2 | 2.21
5 | O=C(C=Cc1ccc(Cl)c(Cl)c1)NCCCCCN1CCC(CCNC(=O)/C=C/c2ccccc2)CC1 | 8.27
6 | O=C(Nc1ccc(Cl)cc1)Nc1cccc(-c2cccc(-c3nc4cc(F)ccc4[nH]3)c2)c1 | 7.07
7 | COC(=O)C(C)NCC(=O)c1ccccc1 (stereo not drawn) | 1.41
8 | CCCNC(=O)c1cncc(-c2ccc(CNC(CC)c3ccccc3)cc2)c1 (stereo not drawn) | 1.64
9 | O=C(NC1CCCCC1)c1ccc(O)c(-c2cccc(C(F)(F)F)c2)c1 | 2.19
10 | CS(=O)(=O)c1ccc(-c2cnc(N)c(-c3ccc(O)cc3)c2)cc1 | 1.67
11 | O=[N+]([O-])c1ccc(/C=N/Nc2cc(-c3ccccc3)nc3ccccc23)o1 | 7.86
12 | COc1ccc(N(C)Cc2cnc3nc(N)nc(N)c3n2)cc1 | 1.47
13 | COc1cccc(-c2cc(C(F)(F)F)n3ncc(C(=O)Nc4cc(C)ccc4O)c3n2)c1 | 0.9
14 | Cc1cc(NC2CCCC2)nc(Nc2ccccc2)n1 | 10.9
15 | CN1CCc2cc(NC(=O)c3cc4ccccc4s3)cc(-c3ccccc3)c2CC1 | 7.46
16 | CCCNC(=O)C1Cc2cc(OC)c(OC)cc2C2(N1)C(=O)N(Cc1cccc(OC)c1)c1ccccc12 (stereo not drawn) | -0
17 | COc1ccc(CNc2nccc3ccc(-c4ccc5nccn5c4)cc23)cc1 | 1.33
18 | CC(C)CCCC(C)(C)NC[C@@H](O)[C@H](Cc1ccccc1)NC(=O)c1cc(NC(C)C)cc(N2CCCCS2(=O)=O)c1 | 7.75
19 | Cc1[nH]c(C)c(-c2ccc(C#Cc3ccc(F)cc3F)cc2)c(=O)c1Br | 2.7
20 | Cc1cccc2nc(-c3cccc(-c4cccc(NC(=O)C(C)CN(C)C)c4)c3)[nH]c12 (stereo not drawn) | 3.6
21 | Cc1cccc2nc(-c3ccc(-c4ccc(CN5CCC(CCN6CCCCC6)CC5)cc4)cc3)[nH]c12 | 6.85
22 | CC(C)(C)c1ccc(OC(=O)c2ccc(NC(=O)N[C@@H](Cc3ccc(O)cc3)C(=O)NC3CCN(Cc4ccc(O)cc4)C3)cc2)cc1 (stereo partly drawn) | 8.16

Row | Compound | IFI [%]
23 | Cn1c(=N)n(CC(=O)N2CCc3ccc(Cl)cc3C2Cc2ccc(Cl)c(Cl)c2)c2ccccc21 (stereo not drawn) | 11.2
24 | O=C(NCc1cccc2ccccc12)C(c1cc2ccccc2o1)N1CCN(C(c2ccccc2)c2ccccc2)CC1 (stereo not drawn) | 1.45
25 | COc1ccc(C(=O)CCC(=O)N(Cc2ccc(-c3ccc(CNCCc4ccc(S(C)(=O)=O)cc4)cn3)cc2)C(C)CN(C)C)cc1F (stereo not drawn) | 4.17
26 | COc1ccc2nccc([C@@H](O)CN3CCC(NCc4ccc5c(c4)N(C)C(=O)CO5)CC3)c2c1 | 0.74
27 | COc1ccc2nccc([C@@H](O)CN3CCC(NC(=O)/C=C/c4ccnc5ccccc45)CC3)c2c1 | 1.47
28 | Fc1ccc2[nH]c3c(NCCCN4CCOCC4)ncnc3c2c1 | 0
29 | Cc1cccc2nc(-c3ccc(-c4cccc(NC(=O)C(C)CN5CCN(C)CC5)c4)cc3)[nH]c12 (stereo not drawn) | 4.63
30 | Cc1[nH]c(C)c(-c2ccc(Oc3ccc(Cl)cc3)cc2)c(=O)c1C | 11.6
31 | CN1CCCC(CN2CCN(Cc3cccc(-c4csc(-c5nc6ccccc6[nH]5)c4)c3)CC2)C1 (stereo not drawn) | 5.63
32 | Cc1cc(NC(=O)c2ccsc2)ccc1OC1CCN(Cc2ccc(F)cc2)CC1 | 1.61
33 | CN1CCN(Cc2cc(NC(=O)c3ccc(-c4ccc(Cl)cc4Cl)cc3)ccc2-c2ccccc2)CC1 | 7.27
34 | CCN1CCC(N(Cc2ccc(-c3ccc(C(F)(F)F)cc3)cc2)C(=O)Cn2c(CCc3cccc(F)c3F)cc(=O)c3cn(C)nc32)CC1 | 5.67
35 | COc1cc2nc(N3CCC(CNC(=O)/C=C/c4ccccc4F)CC3)nc(N)c2cc1OC | 3.51
36 | O=C(O)c1ccc(-c2cnc3ccc(NC4CCC(O)CC4)nn23)cc1 (stereo not drawn) | 1.53
37 | CC1CN(S(=O)(=O)c2ccc(NC(=O)c3cc(-c4ccccc4O)n[nH]3)cc2)CC(C)O1 (stereo not drawn) | 4.41
38 | COc1ccc(CNCCCCCNCc2ccc(Cl)c(Cl)c2)cc1Cl | 7.09
39 | CC[C@]1(C)C[C@@H](NC(=O)NC(=O)c2ccc(OC)cc2)[C@]2(C)[C@H](C)CC[C@]3(CCC(=O)[C@H]32)[C@@H](C)[C@@H]1OC(=O)NC(=O)c1ccc(OC)cc1 | 0
40 | CS(=O)(=O)CCNC(=O)c1ccc(-c2cc3c(Nc4ccc5c(cnn5Cc5ccccc5)c4)ncnc3cn2)o1 | 1.42
41 | CCCCCCNc1cc(C)nc(NC(=N)Nc2cccc(C(F)(F)F)c2)n1 | 7.25
42 | O=C(Nc1ccc(-c2cccc(CN3CCC(O)CC3)c2)cc1)c1cccc(Cl)c1 | 6.67
43 | Cc1noc(C)c1C(=O)N1CCc2cc3nccc(N4CCN5CCC[C@H]5C4)c3cc21 | 1.49
